Test results: US20170368082A1, “FORMULATIONS OF BRINCIDOFOVIR” (priority 2016, published 2017)
The source gives many values for each of these; only a part stands here.

Test: Tissue distribution by quantitative whole-body autoradiography (QWBA)
Type: in vivo, male Sprague Dawley and Long-Evans rats
Details: 15 mg/kg IV
Procedure: The study utilized 4 groups of male SD rats (albino), and 3 groups of male LE rats (pigmented); a total of 39 rats. All animals were obtained from Hilltop Lab Animals, Inc. (Scottdale, Pa.). […] Rats in Group 5 were administered a single 2-h IV infusion of [^14C]brincidofovir at a target dose of 2 mg/kg. […] Three dosing formulations (one for high dose IV, one for low dose IV, and one for PO dose) were prepared at QPS on the day of dosing. The IV formulation for Groups 1, 2, 3, and 4 contained a vehicle of 10 mM sodium phosphate buffer in 5% dextrose solution at pH 8.0(±0.1).
Each animal, at their respective termination time points, was euthanized for QWBA analysis immediately after blood collection. One rat per time point per Group was euthanized as listed below.
The blood samples were maintained on wet ice (approximately 4° C.) and then centrifuged to obtain plasma within 1 h of the blood collection time. Centrifuge settings were recorded in the study notebook. Duplicate aliquots of plasma (0.050 mL) were analyzed for radioactivity using direct counting by LSC, and residual plasma was stored at approximately −70° C. and was saved for possible future analysis under a separate study protocol. Residual red blood cells were discarded as radioactive waste.
The pinna, distal limbs, hair, and tail were removed from each frozen carcass and each frozen carcass was embedded in an aqueous suspension of approximately 2% (w/v) carboxymethylcellulose and frozen into a block. The blocks were stored at approximately −20° C. prior to sectioning. Each blocked carcass was mounted on the object stage of a cryomicrotome (Leica CM3600 Cryomacrocut, Nussloch, Germany and Vibratome 9800, St. Louis, Mo.) maintained at approximately −20° C. and internal standards (3), which were plasma fortified with [^14C]-glucose at one concentration (approximately 0.05 μCi/mL), were placed into the frozen blocks, prior to sectioning, and were used for section thickness quality control. A number of whole-body sections (approximately 40 μm thick) were taken in the sagittal plane at various levels of interest using a whole-body cryomicrotome set at −20° C. Sagittal sections (20-50 μm thick) of frozen carcasses were exposed to phosphor imaging plates. Regions of images in tissues were converted to concentrations using standards. All of the major tissues, organs, and biological fluids were represented.
Tissue concentration data was determined for the following tissues and/or contents: adipose (brown and white), adrenal gland, bile (in duct), blood (cardiac), bone, bone marrow, brain (cerebrum, cerebellum, medulla), cecum (and contents), large intestine (and contents), epididymis, esophagus, eye (uvea and lens), Harderian gland, heart, kidney (cortex and medulla), liver, lung, lymph node, pancreas, pituitary gland, prostate gland, salivary gland, seminal vesicles, skeletal muscle, skin (pigmented and non-pigmented), small intestine (and contents), stomach (gastric mucosa and contents), spleen, spinal cord, testis, thymus, thyroid, and urinary bladder (and contents).
The imaging plate and sections were placed in light-tight exposure cassettes, in a copper-lined lead safe, for a 4-day exposure at room temperature. […] Quantification was performed by image densitometry using MCD image analysis software (v. 7.0, Interfocus Imaging Ltd) and a standard curve constructed from the integrated response [i.e., Molecular Dynamics Counts per square millimeter (MDC/mm^2)] and the nominal concentrations of the ^14C-calibration standards. The concentrations of radioactivity were expressed as the μg equivalents of [^14C]brincidofovir per gram sample (μg equiv/g). A lower limit of quantification (LLOQ) was applied to the data (See section 6.7.4).
Tissue concentrations that fell below the LLOQ were identified as being below the quantification limit (BQL). Tissue areas that were not visualized on autoradiographic images were identified as no sample (NS) and reported as BQL.

CCCCCCCCCCCCCCCCOCCCOP(=O)(O)CO[C@H](CO)Cn1ccc(N)nc1=O [[^14C]brincidofovir]
Concentration of radioactivity (Small Intestine (contents), 2 h, SD rat): 95.869 μg equiv./g | Concentration of radioactivity (Small Intestine (contents), 4 h, LE rat): 55.541 μg equiv/g tissue | Concentration of radioactivity (Small Intestine (contents), 8 h, LE rat): 22.421 μg equiv/g tissue | Concentration of radioactivity (Small Intestine (contents), 24 h, LE rat): 0.962 μg equiv/g tissue | Concentration of radioactivity (Small Intestine (contents), 24 h, SD rat): 66.664 μg equiv./g | Concentration of radioactivity (Small Intestine (contents), 72 h, LE rat): 0.615 μg equiv/g tissue | Concentration of radioactivity (Small Intestine (contents), 96 h, LE rat): 0.120 μg equiv/g tissue | Concentration of radioactivity (Small Intestine (contents), 168 h, LE rat): BQL (BQL = Value is below the LLOQ) | Concentration of radioactivity (Small Intestine (contents), 168 h, SD rat): 0.039 μg equiv./g | Concentration of radioactivity (Small Intestine (contents), 840 h, LE rat): BQL (BQL = Value is below the LLOQ) | Concentration of radioactivity (Small Intestine, 1 h, LE rat): 6.622 μg equiv/g tissue | Concentration of radioactivity (Small Intestine, 2 h, LE rat): 71.029 μg equiv/g tissue | Concentration of radioactivity (Small Intestine, 2 h, SD rat): 43.741 μg equiv./g | Concentration of radioactivity (Small Intestine, 4 h, LE rat): 42.479 μg equiv/g tissue | Concentration of radioactivity (Small Intestine, 8 h, LE rat): 48.384 μg equiv/g tissue | Concentration of radioactivity (Small Intestine, 24 h, LE rat): 3.184 μg equiv/g tissue | Concentration of radioactivity (Small Intestine, 24 h, SD rat): 6.290 μg equiv./g | Concentration of radioactivity (Small Intestine, 72 h, LE rat): 4.569 μg equiv/g tissue | Concentration of radioactivity (Small Intestine, 96 h, LE rat): 0.911 μg equiv/g tissue | Concentration of radioactivity (Small Intestine, 168 h, LE rat): 0.339 μg equiv/g tissue | Concentration of radioactivity (Small Intestine, 168 h, SD rat): 1.704 μg equiv./g | Concentration of radioactivity (Small Intestine, 840 h, LE rat): BQL (BQL = Value is below the LLOQ) | Concentration of radioactivity (Spinal Cord, 1 h, LE rat): 0.462 μg equiv/g tissue | Concentration of radioactivity (Spinal Cord, 2 h, LE rat): 0.940 μg equiv/g tissue | Concentration of radioactivity (Spinal Cord, 4 h, LE rat): 0.277 μg equiv/g tissue | Concentration of radioactivity (Spinal Cord, 8 h, LE rat): 0.116 μg equiv/g tissue | Concentration of radioactivity (Spinal Cord, 24 h, LE rat): 0.060 μg equiv/g tissue | Concentration of radioactivity (Spinal Cord, 72 h, LE rat): BQL (BQL = Value is below the LLOQ) | Concentration of radioactivity (Spinal Cord, 96 h, LE rat): BQL (BQL = Value is below the LLOQ) | Concentration of radioactivity (Spinal Cord, 168 h, LE rat): BQL (BQL = Value is below the LLOQ) | Concentration of radioactivity (Spinal Cord, 840 h, LE rat): BQL (BQL = Value is below the LLOQ) | Concentration of radioactivity (Spleen, 1 h, LE rat): 2.081 μg equiv/g tissue | Concentration of radioactivity (Spleen, 2 h, LE rat): 4.314 μg equiv/g tissue | Concentration of radioactivity (Spleen, 4 h, LE rat): 3.249 μg equiv/g tissue | Concentration of radioactivity (Spleen, 8 h, LE rat): 2.728 μg equiv/g tissue | Concentration of radioactivity (Spleen, 24 h, LE rat): 1.870 μg equiv/g tissue | Concentration of radioactivity (Spleen, 72 h, LE rat): 1.675 μg equiv/g tissue | Concentration of radioactivity (Spleen, 96 h, LE rat): 1.106 μg equiv/g tissue | Concentration of radioactivity (Spleen, 168 h, LE rat): 0.892 μg equiv/g tissue | Concentration of radioactivity (Spleen, 840 h, LE rat): 0.273 μg equiv/g tissue | Concentration of radioactivity (Stomach (contents), 1 h, LE rat): 1.125 μg equiv/g tissue | Concentration of radioactivity (Stomach (contents), 2 h, LE rat): 6.178 μg equiv/g tissue | Concentration of radioactivity (Stomach (contents), 2 h, SD rat): 3.827 μg equiv./g | Concentration of radioactivity (Stomach (contents), 4 h, LE rat): 0.960 μg equiv/g tissue | Concentration of radioactivity (Stomach (contents), 8 h, LE rat): 10.997 μg equiv/g tissue | Concentration of radioactivity (Stomach (contents), 24 h, LE rat): 0.170 μg equiv/g tissue | Concentration of radioactivity (Stomach (contents), 24 h, SD rat): 26.408 μg equiv./g | Concentration of radioactivity (Stomach (contents), 72 h, LE rat): 0.080 μg equiv/g tissue | Concentration of radioactivity (Stomach (contents), 96 h, LE rat): BQL (BQL = Value is below the LLOQ) | Concentration of radioactivity (Stomach (contents), 168 h, LE rat): BQL (BQL = Value is below the LLOQ) | Concentration of radioactivity (Stomach (contents), 168 h, SD rat): 0.051 μg equiv./g | Concentration of radioactivity (Stomach (contents), 840 h, LE rat): BQL (BQL = Value is below the LLOQ) | Concentration of radioactivity (Stomach (gastric mucosa), 1 h, LE rat): 1.446 μg equiv/g tissue | Concentration of radioactivity (Stomach (gastric mucosa), 2 h, LE rat): 2.518 μg equiv/g tissue | Concentration of radioactivity (Stomach (gastric mucosa), 2 h, SD rat): 3.777 μg equiv./g | Concentration of radioactivity (Stomach (gastric mucosa), 4 h, LE rat): 1.430 μg equiv/g tissue | Concentration of radioactivity (Stomach (gastric mucosa), 8 h, LE rat): 1.223 μg equiv/g tissue | Concentration of radioactivity (Stomach (gastric mucosa), 24 h, LE rat): 0.295 μg equiv/g tissue | Concentration of radioactivity (Stomach (gastric mucosa), 24 h, SD rat): 1.333 μg equiv./g | Concentration of radioactivity (Stomach (gastric mucosa), 72 h, LE rat): 0.225 μg equiv/g tissue | Concentration of radioactivity (Stomach (gastric mucosa), 96 h, LE rat): 0.110 μg equiv/g tissue | Concentration of radioactivity (Stomach (gastric mucosa), 168 h, LE rat): 0.069 μg equiv/g tissue | Concentration of radioactivity (Stomach (gastric mucosa), 168 h, SD rat): 0.062 μg equiv./g | Concentration of radioactivity (Stomach (gastric mucosa), 840 h, LE rat): BQL (BQL = Value is below the LLOQ) | Concentration of radioactivity (Testis, 1 h, LE rat): 0.595 μg equiv/g tissue | Concentration of radioactivity (Testis, 2 h, LE rat): 1.321 μg equiv/g tissue | Concentration of radioactivity (Testis, 4 h, LE rat): 1.021 μg equiv/g tissue | Concentration of radioactivity (Testis, 8 h, LE rat): 0.802 μg equiv/g tissue | Concentration of radioactivity (Testis, 24 h, LE rat): 0.285 μg equiv/g tissue | Concentration of radioactivity (Testis, 72 h, LE rat): 0.240 μg equiv/g tissue | Concentration of radioactivity (Testis, 96 h, LE rat): 0.196 μg equiv/g tissue | Concentration of radioactivity (Testis, 168 h, LE rat): 0.098 μg equiv/g tissue | Concentration of radioactivity (Testis, 840 h, LE rat): BQL (BQL = Value is below the LLOQ) | Concentration of radioactivity (Thymus, 1 h, LE rat): 1.223 μg equiv/g tissue | Concentration of radioactivity (Thymus, 2 h, LE rat): 2.125 μg equiv/g tissue | Concentration of radioactivity (Thymus, 4 h, LE rat): 1.205 μg equiv/g tissue | Concentration of radioactivity (Thymus, 8 h, LE rat): 1.107 μg equiv/g tissue | Concentration of radioactivity (Thymus, 24 h, LE rat): 0.403 μg equiv/g tissue | Concentration of radioactivity (Thymus, 72 h, LE rat): 0.359 μg equiv/g tissue | Concentration of radioactivity (Thymus, 96 h, LE rat): 0.215 μg equiv/g tissue | Concentration of radioactivity (Thymus, 168 h, LE rat): 0.100 μg equiv/g tissue | Concentration of radioactivity (Thymus, 840 h, LE rat): BQL (BQL = Value is below the LLOQ) | Concentration of radioactivity (Thyroid, 1 h, LE rat): 1.486 μg equiv/g tissue | Concentration of radioactivity (Thyroid, 2 h, LE rat): 2.454 μg equiv/g tissue | Concentration of radioactivity (Thyroid, 4 h, LE rat): 1.884 μg equiv/g tissue | Concentration of radioactivity (Thyroid, 8 h, LE rat): 1.532 μg equiv/g tissue | Concentration of radioactivity (Thyroid, 24 h, LE rat): 0.567 μg equiv/g tissue | Concentration of radioactivity (Thyroid, 72 h, LE rat): 0.376 μg equiv/g tissue | Concentration of radioactivity (Thyroid, 96 h, LE rat): 0.197 μg equiv/g tissue | Concentration of radioactivity (Thyroid, 168 h, LE rat): 0.459 μg equiv/g tissue | Concentration of radioactivity (Thyroid, 840 h, LE rat): BQL (BQL = Value is below the LLOQ) | Concentration of radioactivity (Urinary Bladder (contents), 1 h, LE rat): 19.057 μg equiv/g tissue | Concentration of radioactivity (Urinary Bladder (contents), 2 h, LE rat): 26.805 μg equiv/g tissue | Concentration of radioactivity (Urinary Bladder (contents), 4 h, LE rat): 814.445 μg equiv/g tissue | Concentration of radioactivity (Urinary Bladder (contents), 8 h, LE rat): 82.440 μg equiv/g tissue | Concentration of radioactivity (Urinary Bladder (contents), 24 h, LE rat): 22.258 μg equiv/g tissue | Concentration of radioactivity (Urinary Bladder (contents), 72 h, LE rat): 1.911 μg equiv/g tissue | Concentration of radioactivity (Urinary Bladder (contents), 96 h, LE rat): 0.357 μg equiv/g tissue | Concentration of radioactivity (Urinary Bladder (contents), 168 h, LE rat): 0.104 μg equiv/g tissue | Concentration of radioactivity (Urinary Bladder (contents), 840 h, LE rat): BQL (BQL = Value is below the LLOQ) | Concentration of radioactivity (Urinary Bladder, 1 h, LE rat): 6.053 μg equiv/g tissue | Concentration of radioactivity (Urinary Bladder, 2 h, LE rat): 5.004 μg equiv/g tissue | Concentration of radioactivity (Urinary Bladder, 4 h, LE rat): 22.781 μg equiv/g tissue | Concentration of radioactivity (Urinary Bladder, 8 h, LE rat): 5.643 μg equiv/g tissue | Concentration of radioactivity (Urinary Bladder, 24 h, LE rat): 1.885 μg equiv/g tissue | Concentration of radioactivity (Urinary Bladder, 72 h, LE rat): 0.336 μg equiv/g tissue | Concentration of radioactivity (Urinary Bladder, 96 h, LE rat): 0.100 μg equiv/g tissue | Concentration of radioactivity (Urinary Bladder, 168 h, LE rat): BQL (BQL = Value is below the LLOQ) | Concentration of radioactivity (Urinary Bladder, 840 h, LE rat): BQL (BQL = Value is below the LLOQ)
